Experimental data as given in the supplement of paper PMC4604168 (melanoma cell lines).
This is one part of the list. Most values come without repeats; read them as rough.

What was measured:
Assay in all cases: cell count relative to DMSO control; melanoma cells; higher = more viable cells
Details in all cases: library dose: standard library concentration; 72 h
G361 = tested on: G361
IPC-298 = tested on: IPC-298
IST-MEL1 = tested on: IST-MEL1
LB2518-MEL = tested on: LB2518-MEL
LOXIMVI = tested on: LOXIMVI
MEL-HO = tested on: MEL-HO
MZ2-MEL = tested on: MZ2-MEL
MeWo = tested on: MeWo
RPMI7951 = tested on: RPMI7951
RVH-421 = tested on: RVH-421
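Also: cells treated in 1,536-well plates, then fixed and DAPI-stained, with nuclei counted from automated high-throughput microscope images.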

Structure (SMILES) | cell count (G361) [%] | cell count (IPC-298) [%] | cell count (IST-MEL1) [%] | cell count (LB2518-MEL) [%] | cell count (LOXIMVI) [%] | cell count (MEL-HO) [%] | cell count (MZ2-MEL) [%] | cell count (MeWo) [%] | cell count (RPMI7951) [%] | cell count (RVH-421) [%]
C=C(c1ccc(C(=O)O)cc1)c1cc2c(cc1C)C(C)(C)CCC2(C)C [Bexarotene] + COc1cc2ncnc(Nc3ccc(Oc4ccccc4)cc3)c2cc1OC [SrcI1] (first compound 10 µM, partner dose 10 µM) | 23.6 | 58.3 | 69.5 | 104 | 64.2 | 72.1 | 65.5 | 79.3 | 11.9 | 91.5
CS(=O)(=O)c1ccc(C(=O)Nc2ccc(Cl)c(-c3ccccn3)c2)c(Cl)c1 [vismodegib] + Clc1ccc(Nc2nnc(Cc3ccncc3)c3ccccc23)cc1 [vatalanib] (first compound 5 µM, partner dose 10 µM) | 83.4 | 76.3 | 72.7 | 68.7 | 75.2 | 53.8 | 76.4 | 60.2 | 74.3 | 73.8
CS(=O)(=O)c1ccc(C(=O)Nc2ccc(Cl)c(-c3ccccn3)c2)c(Cl)c1 [vismodegib] + CO[C@@H]1[C@H](N(C)C(=O)c2ccccc2)C[C@H]2O[C@]1(C)n1c3ccccc3c3c4c(c5c6ccccc6n2c5c31)C(=O)NC4 [Midostaurin] (first compound 5 µM, partner dose 0.4 µM) | 53.9 | 84.6 | 106 | 79.9 | 83.1 | 75.3 | 96.2 | 73.8 | 54.3 | 88.3
CS(=O)(=O)c1ccc(C(=O)Nc2ccc(Cl)c(-c3ccccn3)c2)c(Cl)c1 [vismodegib] + CC1(C)NC(=O)N(c2ccc([N+](=O)[O-])c(C(F)(F)F)c2)C1=O [nilutamide] (first compound 5 µM, partner dose 5 µM) | 110 | 97.5 | 93.1 | 85.7 | 114 | 92.7 | 116 | 102 | 105 | 111
C=C(c1ccc(C(=O)O)cc1)c1cc2c(cc1C)C(C)(C)CCC2(C)C [Bexarotene] + Cc1ccc(NC(=O)c2cccc(N(C)C)c2)cc1NC(=O)c1ccc(O)cc1 [ZM336372] (first compound 10 µM, partner dose 10 µM) | 80.8 | 91.5 | 77.7 | 101 | 81.7 | 84.1 | 80.7 | 77.8 | 72 | 84.2
CN(c1ncccc1CNc1nc(Nc2ccc3c(c2)CC(=O)N3)ncc1C(F)(F)F)S(C)(=O)=O + Cn1nnc2c(C(N)=O)ncn2c1=O [temozolomide] (first compound 0.4 µM, partner dose 10 µM) | 81.3 | 91.4 | 71.6 | 80.1 | 78.7 | 91.9 | 77 | 91.2 | 58 | 82.5
CCCS(=O)(=O)Nc1ccc(F)c(C(=O)c2c[nH]c3ncc(Cl)cc23)c1F + COc1ccc(Cl)c(Nc2nc3ccccc3nc2NS(=O)(=O)c2cccc(NC(=O)C(C)(C)N)c2)c1 [XL147] (first compound 0.4 µM, partner dose 4 µM) | 59 | 51 | 60 | 72.3 | 92.9 | 51.5 | 59.7 | 84.8 | 112 | 54.7
CS(=O)(=O)c1ccc(C(=O)Nc2ccc(Cl)c(-c3ccccn3)c2)c(Cl)c1 [vismodegib] + COc1cc(Nc2ncc(F)c(Nc3ccc4c(n3)NC(=O)C(C)(C)O4)n2)cc(OC)c1OC [Tamatinib] (first compound 5 µM, partner dose 2 µM) | 64.4 | 75.7 | 72.6 | 68.9 | 34.3 | 69.9 | 67.5 | 78.6 | 24.5 | 61
NC1(c2ccc(-c3nc4ccn5c(=O)[nH]nc5c4cc3-c3ccccc3)cc2)CCC1 + CC(=O)c1c(C)c2cnc(Nc3ccc(N4CCNCC4)cn3)nc2n(C2CCCC2)c1=O [palbociclib] (first compound 2 µM, partner dose 0.2 µM) | 63.9 | 61.3 | 54.2 | 60.7 | 76.4 | 56.4 | 61.3 | 42 | 54.8 | 64.2
NC1(c2ccc(-c3nc4ccn5c(=O)[nH]nc5c4cc3-c3ccccc3)cc2)CCC1 + COC(=O)c1sccc1S(=O)(=O)Nc1ccc(Nc2ccccc2)cc1OC [GSK0660] (first compound 2 µM, partner dose 5 µM) | 71.7 | 89.4 | 87.9 | 85.2 | 89.9 | 70 | 84.5 | 70.8 | 71.3 | 90.9
CS(=O)(=O)c1ccc(C(=O)Nc2ccc(Cl)c(-c3ccccn3)c2)c(Cl)c1 [vismodegib] + C=C(c1ccc(C(=O)O)cc1)c1cc2c(cc1C)C(C)(C)CCC2(C)C [Bexarotene] (first compound 5 µM, partner dose 10 µM) | 63.1 | 69 | 78.5 | 87.9 | 94 | 76.5 | 64.2 | 75.2 | 61.8 | 111
CS(=O)(=O)c1ccc(C(=O)Nc2ccc(Cl)c(-c3ccccn3)c2)c(Cl)c1 [vismodegib] + Nc1nc(F)nc2c1ncn2[C@@H]1O[C@H](CO)[C@@H](O)[C@@H]1O [fludarabine] (first compound 5 µM, partner dose 1 µM) | 77.6 | 73.4 | 75.6 | 105 | 134 | 88.1 | 129 | 103 | 73 | 126
CN(c1ncccc1CNc1nc(Nc2ccc3c(c2)CC(=O)N3)ncc1C(F)(F)F)S(C)(=O)=O + CO[C@H]1C[C@@H]2CC[C@@H](C)[C@@](O)(O2)C(=O)C(=O)N2CCCC[C@H]2C(=O)O[C@H]([C@H](C)C[C@@H]2CC[C@@H](OCCO)[C@H](OC)C2)CC(=O)[C@H](C)/C=C(\C)[C@@H](O)[C@@H](OC)C(=O)[C@H](C)C[C@H](C)/C=C/C=C/C=C/1C [everolimus] (first compound 0.4 µM, partner dose 0.1 µM) | 61.6 | 79.1 | 78.4 | 80.4 | 84.2 | 74.4 | 75.6 | 87.5 | 78 | 92.9
CCCS(=O)(=O)Nc1ccc(F)c(C(=O)c2c[nH]c3ncc(Cl)cc23)c1F + CN(NC(=O)CC(=O)NN(C)C(=S)c1ccccc1)C(=S)c1ccccc1 [STA4783] (first compound 0.4 µM, partner dose 0.03 µM) | 29.6 | 56.6 | 8.24 | 23.6 | 90.5 | 74.5 | 95.7 | 14.8 | 71.4 | 36.2
CN(c1ncccc1CNc1nc(Nc2ccc3c(c2)CC(=O)N3)ncc1C(F)(F)F)S(C)(=O)=O + COc1ccc2c(c1)CCC1C2CCC2(C)C(NCCCCCCN3C(=O)C=CC3=O)CCC12 [U73122] (first compound 0.4 µM, partner dose 2 µM) | 104 | 102 | 105 | 108 | 84.5 | 104 | 109 | 70 | 71.8 | 111
NC1(c2ccc(-c3nc4ccn5c(=O)[nH]nc5c4cc3-c3ccccc3)cc2)CCC1 + C[C@@H]1CCN(C(=O)CC#N)C[C@@H]1N(C)c1ncnc2[nH]ccc12 [CP690550] (first compound 2 µM, partner dose 5 µM) | 77.9 | 98.4 | 139 | 85.5 | 90.3 | 84.5 | 108 | 76.3 | 67.8 | 84.5
C=C(c1ccc(C(=O)O)cc1)c1cc2c(cc1C)C(C)(C)CCC2(C)C [Bexarotene] + NC(=O)Nc1cc(-c2cccc(F)c2)sc1C(=O)N[C@H]1CCCNC1 [AZD7762] (first compound 10 µM, partner dose 0.1 µM) | 85 | 89.9 | 92.4 | 73.1 | 96.5 | 85.9 | 81.9 | 95.9 | 43.5 | 127
CCCS(=O)(=O)Nc1ccc(F)c(C(=O)c2c[nH]c3ncc(Cl)cc23)c1F + CCCCCCCCCCCC1=C(O)C(=O)C=C(O)C1=O [Embelin] (first compound 0.4 µM, partner dose 6 µM) | 69.3 | 85.7 | 86 | 85.4 | 92.1 | 82.9 | 73.8 | 123 | 102 | 102
CS(=O)(=O)c1ccc(C(=O)Nc2ccc(Cl)c(-c3ccccn3)c2)c(Cl)c1 [vismodegib] + C=CCNC1=C2C[C@@H](C)C[C@H](OC)[C@H](O)[C@@H](C)/C=C(\C)[C@H](OC(N)=O)[C@@H](OC)/C=C\C=C(/C)C(=O)NC(=CC1=O)C2=O [Tanespimycin] (first compound 5 µM, partner dose 0.01 µM) | 78.2 | 88.6 | 66.3 | 85.6 | 107 | 104 | 96.4 | 70.3 | 23.8 | 99.7
C=C(c1ccc(C(=O)O)cc1)c1cc2c(cc1C)C(C)(C)CCC2(C)C [Bexarotene] + COCC[n+]1c2c(n(Cc3cnccn3)c1C)C(=O)c1ccccc1C2=O [YM155] (first compound 10 µM, partner dose 0.002 µM) | 88.3 | 60.4 | 54.5 | 65.9 | 79.2 | 125 | 6.93 | 62.2 | 72.5 | 114
